The values below come from the supplement of paper PMC8748497.

Some of the results follow.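 Rule for the calls: active = fold change of at least 2 over DMSO control; inactive = below 2-fold.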 Most values come without repeats; read them as rough.

In the test the test system is HEK293 ARE/NRF2-luciferase reporter. Put plainly: ARE/NRF2 luciferase reporter activity, fold change over DMSO control; higher = stronger NRF2/ARE reporter activation. The note with it: 10 µM; 24 h.
In the case of `O=C1O[C@H]([C@@H](O)CO)C(O)=C1O`, the “ARE/NRF2 luciferase reporter activity” value is inactive: 0.782.
`O=C(O)Cc1cc(I)c(Oc2ccc(O)c(I)c2)c(I)c1`: the “ARE/NRF2 luciferase reporter activity” value is inactive: 1.03.
The same measure for `C=C1c2c(Cl)ccc(O)c2C(O)=C2C(=O)[C@]3(O)C(O)=C(C(N)=O)C(=O)[C@@H](N(C)C)[C@@H]3[C@@H](O)[C@H]12.O=C(O)c1cc(S(=O)(=O)O)ccc1O`: inactive: 0.979; for `N=C(N)N1CCc2ccccc2C1`: inactive: 0.842.
The same measure for `OC[C@H]1O[C@@H](Oc2ccc(O)cc2)[C@H](O)[C@@H](O)[C@@H]1O`: inactive: 0.974; for `CC(C)CC(NC(=O)OCC1c2ccccc2-c2ccccc21)C(=O)O` (stereo in doubt): active: 2.47.
`CC(=O)c1ccc2c(c1)N(CCCN(C)C)c1ccccc1S2`: the “ARE/NRF2 luciferase reporter activity” value is inactive: 0.914.
The same measure for `CCOc1cccc(C(=O)c2ccc(O)c(O)c2O)c1`: active: 2; for `Cn1c(=O)cc(N2CCC[C@@H](N)C2)n(Cc2ccccc2C#N)c1=O`: inactive: 1.26; for `O=C(NCc1ccccc1)OCCO`: inactive: 1.23.
With `CN1CCN(c2c(F)cc3c(=O)c(C(=O)O)cn(CCF)c3c2F)CC1`, the “ARE/NRF2 luciferase reporter activity” value was inactive: 1.01.
The same measure for `NC[C@@H]1O[C@@H](O[C@H]2[C@H](O)[C@@H](O[C@H]3O[C@H](CO)[C@@H](O)[C@H](N)[C@H]3O)[C@H](N)C[C@@H]2N)[C@@H](O)[C@H](O)[C@H]1O`: inactive: 0.923; for `CN1CCN2c3ncccc3Cc3ccccc3C2C1` (centres undefined): inactive: 0.94.
For `COc1cc2nc(N3CCN(C(=O)C4CCCO4)CC3)nc(N)c2cc1OC` (centres undefined), the “ARE/NRF2 luciferase reporter activity” value was inactive: 1.11.
Take `CCc1cc(Cl)c(OC)c(C(=O)NC[C@@H]2CCCN2CC)c1O`: the “ARE/NRF2 luciferase reporter activity” value is inactive: 0.737.
The same measure for `CO[C@@]1(NC(=O)C(C(=O)O)c2ccc(O)cc2)C(=O)N2C(C(=O)O)=C(CSc3nnnn3C)CO[C@@H]21` (some centres undefined): inactive: 1.12.
For `CC1(C)S[C@@H]2[C@H](NC(=O)Cc3ccccc3)C(=O)N2[C@H]1C(=O)O` the value was inactive: 0.845; for `C1CNCCN1`, inactive: 0.914.
Consider `O=C1c2ccccc2C(=O)C1c1ccc(Br)cc1`, for which the “ARE/NRF2 luciferase reporter activity” value was active: 2.41.
For `CO/N=C(\C(=O)N[C@@H]1C(=O)N2C(C(=O)OCOC(=O)C(C)(C)C)=C(/C=C\c3scnc3C)CS[C@H]12)c1csc(N)n1` the value was inactive: 1.12; for `CC1(C)C=Cc2cc3ccc(=O)oc3cc2O1`, active: 4.1.
Turning to `CC(=O)N[C@@H](CS)C(=O)O`, the “ARE/NRF2 luciferase reporter activity” value is inactive: 0.917.
For `Cc1cc2nc3ccc(=[N+](C)C)cc-3sc2cc1N`, the “ARE/NRF2 luciferase reporter activity” value was inactive: 0.0926.
On to `CC/C=C\C/C=C\C/C=C\C/C=C\C/C=C\C/C=C\CCC(=O)O`, for which the “ARE/NRF2 luciferase reporter activity” value was inactive: 1.03.
`CC(=O)O[C@H]1C[C@@]2(C)[C@@H](C[C@@H](O)[C@H]3[C@@]4(C)CC[C@@H](O)[C@@H](C)[C@@H]4CC[C@@]32C)/C1=C(\CCC=C(C)C)C(=O)O`: the “ARE/NRF2 luciferase reporter activity” value is inactive: 1.
For `C[C@@H]1C[C@H]2[C@@H]3CCC4=CC(=O)C=C[C@]4(C)[C@@]3(F)[C@@H](O)C[C@]2(C)[C@@]1(O)C(=O)CO` the value was inactive: 1.05; for `CCc1c2c(nc3ccc(OC(=O)N4CCC(N5CCCCC5)CC4)cc13)-c1cc3c(c(=O)n1C2)COC(=O)[C@]3(O)CC`, inactive: 1.23.
For `COc1ccccc1OCC(O)COC(N)=O` (centres undefined) the value was inactive: 1.07; for `CC1=CC(=O)C2=C(C)CC[C@@H]3[C@H](OC(=O)[C@H]3C)[C@@H]12`, inactive: 0.0454.
As for `N=C(N)NC(=O)Cc1c(Cl)cccc1Cl`, the “ARE/NRF2 luciferase reporter activity” value is inactive: 0.998.
In the case of `CC(C)[C@H](N)C(=O)O`, the “ARE/NRF2 luciferase reporter activity” value is inactive: 0.891.
The same measure for `Cc1cc(O)c(C=O)c(O)c1C(=O)O`: inactive: 0.884.
For `COc1ccccc1O`, the “ARE/NRF2 luciferase reporter activity” value was inactive: 1.16.
The same measure for `C=C1C2CC[C@@]3(C)[C@H](c4ccoc4)OC(=O)C[C@]13O[C@H]1CC(O)C(C)(C)C(CC(=O)OC)[C@@]21C` (stereo partly drawn) [3alpha-HYDROXY-3-DEOXYANGOLENSIC ACID METHYL ESTER]: inactive: 0.742; for `CCC(C)(C)C(=O)O[C@H]1C[C@@H](C)C=C2C=C[C@H](C)[C@H](CC[C@@H]3C[C@@H](O)CC(=O)O3)[C@H]21`: inactive: 0.613; for `CN1CCC(=C2c3ccccc3C=Cc3ccccc32)CC1`: inactive: 0.907.
Turning to `CCCCC(CC)CN1CN(CC(CC)CCCC)CC(C)(N)C1` (centres undefined), the “ARE/NRF2 luciferase reporter activity” value is inactive: 0.142.
For `CC(C)CCC[C@@H](C)[C@H]1CC[C@H]2[C@@H]3CC(=O)[C@H]4C[C@@H](O)CC[C@]4(C)[C@H]3CC[C@]12C` [5alpha-CHOLESTAN-3beta-OL-6-ONE] the value was inactive: 1.21; for `COc1ccc(C2CNC(=O)C2)cc1OC1CCCC1` (centres undefined), inactive: 0.861.
